Results taken from the supplement of paper PMC8183993.
Structures can show the parent of a compound that is named as a salt. ± gives the standard deviation of the averaged measurements. Over roughly 3,100 compounds, “mean cytoplasmic OPP incorporation (global translation) relative to DMSO” has its median near 100; the lowest 2% begin near 56. Some of the results follow.

System: U2OS
Assay: mean cytoplasmic OPP incorporation (global translation) relative to DMSO (% of DMSO); higher = more protein synthesis
Details: 10 µM; 24 h
Protocol: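 Primary image-based screen in U2OS cells: compounds at 10 uM for 24 h, then a 1 h o-propargyl-puromycin (OPP) pulse, click labelling, and high-throughput microscopy. Mean cytoplasmic OPP intensity and nuclei count were normalised to DMSO wells within each plate (DMSO = 100) and averaged over triplicate plates.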

| SMILES | mean cytoplasmic OPP incorporation |
| --- | --- |
| O=C(Cc1ccccc1)Nc1cccc(C(=O)Nc2ccccc2C(=O)O)c1 | 106 |
| CCN1CCCC1CNC(=O)c1cc(S(N)(=O)=O)ccc1OC (stereo unspecified) [Sulpiride] | 98.5 |
| COc1ccc(-c2ccc3cc(C(=O)O)ccc3c2)cc1C12CC3CC(CC(C3)C1)C2 [Adapalene] | 99.9 |
| O=c1[nH]c(=O)n([C@H]2C[C@H](O)[C@@H](CO)O2)cc1I [Idoxuridine] | 99 |
| CN1CCN(c2ccc3nc(-c4c(N)c5c(F)cccc5[nH]c4=O)[nH]c3c2)CC1 [Dovitinib (TKI-258)] | 89.2 ± 17 |
| C=CCNC1=C2C[C@@H](C)C[C@H](OC)[C@H](O)[C@@H](C)/C=C(\C)[C@H](OC(N)=O)[C@@H](OC)/C=C\C=C(/C)C(=O)NC(=CC1=O)C2=O | 108 |
| Cc1cccc(N(C)C(=S)Oc2ccc3ccccc3c2)c1 [Tolnaftate] | 98.3 |
| O=C(O)c1cccnc1 [Niacin] | 99.5 |
| CCCCc1oc2ccccc2c1C(=O)c1cc(I)c(OCCN(CC)CC)c(I)c1 [Amiodarone hydrochloride] | 117 |
| CCCCc1oc2ccccc2c1C(=O)c1cc(I)c(OCCN(CC)CC)c(I)c1 [Amiodarone] | 105 |
| O=C(Nc1cccnc1)N1CCC(Cc2cccc(Oc3ccc(C(F)(F)F)cn3)c2)CC1 | 113 |
| O=C(Nc1ccc([N+](=O)[O-])cc1Cl)c1cc(Cl)ccc1O [Niclosamide] | 106 ± 11 |
| Cc1cc(C)nc(NS(=O)(=O)c2ccc(NC(=S)NC(=O)COc3ccc(Br)cc3Cl)cc2)n1 | 107 |
| CCOc1ccc(Cc2nccc3cc(OCC)c(OCC)cc23)cc1OCC [Ethaverine hydrochloride] | 111 |
| C#C[C@]1(O)CC[C@H]2[C@@H]3CCC4=Cc5oncc5C[C@]4(C)[C@H]3CC[C@@]21C [Danazol] | 94.8 |
| CC(C)c1nc(CN(C)C(=O)N[C@@H](CCN2CCOCC2)C(=O)N[C@H](CC[C@H](Cc2ccccc2)NC(=O)OCc2cncs2)Cc2ccccc2)cs1 [Cobicistat (GS-9350)] | 113 |
| Cc1cccc(-c2nn3c(c2-c2ccnc4ccc(C(N)=O)cc24)CCC3)n1 | 103 |
| CCO/C(O)=C1\C(C)=NC(c2ccccc2)=C(C(=O)OCc2ccc([N+](=O)[O-])cc2)C1C#Cc1ccccc1 (stereo unspecified) | 108 |
| O=C(O)c1ccc(C=C2SC(=S)N(c3cccc(C(F)(F)F)c3)C2=O)cc1 | 103 |
| CC12CC3CC(C)(C1)CC(N)(C3)C2 [Memantine Hydrochloride] | 96.7 |
| CC12CC3CC(C)(C1)CC(N)(C3)C2 [Memantine hydrochloride] | 98.7 |
